# The whole screen tested about 270,000 compounds, of which about 5,800 (2.1%) were called active. This list was built around the results that the source calls inconclusive (neither active nor inactive); the mix of calls is not that of the screen. Calls come from the whole dose curve; as a rule, active = well fitted inhibition curve with a large enough effect; inconclusive = small, poorly fitted or top-dose-only effect; inactive = flat fitted curve, though single readings scatter. Potencies of inconclusive entries are doubtful fits and often do not repeat.
# Biological target: Microtubule-associated protein tau (Homo sapiens) (UniProt P10636)
# Sequence of UniProt P10636 (P10636 whole entry, looked up): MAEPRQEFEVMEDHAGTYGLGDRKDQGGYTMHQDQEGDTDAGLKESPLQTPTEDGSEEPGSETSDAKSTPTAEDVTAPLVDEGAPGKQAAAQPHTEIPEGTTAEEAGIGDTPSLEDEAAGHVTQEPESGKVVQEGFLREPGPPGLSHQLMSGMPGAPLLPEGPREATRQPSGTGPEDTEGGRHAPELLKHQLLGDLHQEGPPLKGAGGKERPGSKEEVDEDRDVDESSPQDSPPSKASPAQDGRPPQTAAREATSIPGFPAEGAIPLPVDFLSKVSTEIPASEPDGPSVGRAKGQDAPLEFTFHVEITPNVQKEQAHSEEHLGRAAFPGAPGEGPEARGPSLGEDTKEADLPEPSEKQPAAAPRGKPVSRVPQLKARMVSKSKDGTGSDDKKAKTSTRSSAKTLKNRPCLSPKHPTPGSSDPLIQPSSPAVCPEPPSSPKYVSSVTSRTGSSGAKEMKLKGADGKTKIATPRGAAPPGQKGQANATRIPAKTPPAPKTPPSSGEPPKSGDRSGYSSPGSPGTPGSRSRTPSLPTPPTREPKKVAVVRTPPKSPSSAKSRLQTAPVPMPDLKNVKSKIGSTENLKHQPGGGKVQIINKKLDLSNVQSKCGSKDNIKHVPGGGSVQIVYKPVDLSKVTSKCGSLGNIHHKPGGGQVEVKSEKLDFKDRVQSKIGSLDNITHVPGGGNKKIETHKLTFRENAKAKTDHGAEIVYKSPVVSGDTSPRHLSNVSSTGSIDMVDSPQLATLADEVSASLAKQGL
# Test: qHTS for Inhibitors of Tau Fibril Formation, Thioflavin T Binding; note: nearly all actives have a fitted effect of over 55% in size
# Conditions: recombinant tau K18 P301L (four-repeat tau fragment), heparin-induced fibrillization, ThT fluorescence; series mostly up to 57.4 µM
# Summary of the method: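 Recombinant human tau K18 fragment […] carrying P301L, 15 uM unlabeled plus 0.24 uM Alexa 594-labeled, was fibrillized with 20 uM heparin in 100 mM sodium acetate pH 7 for 6 hr at 37 C; 30 uM ThT fluorescence read after 1 hr.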
# Potency is the fitted concentration of half-maximal effect; tags give direction and shape of the fitted curve.
row,Structure (SMILES),Potency
1,CC(=S)c1c(C)cc2cc(C)ccn12,"inconclusive: 7.08 µM [inhibitor, partial curve]"
2,CC1NC(=O)NC1CCCCCC(=O)NCCc1ccccc1 (centres undefined),inactive
3,CC(=O)Nc1ccc(S(=O)(=O)Nc2nc3ccccc3nc2Nc2ccc(N)cc2)cc1,"inconclusive: 12.6 µM [inhibitor, partial curve]"
4,CN(C)c1cc(NC(=O)CN2CCOCC2)c2ccccc2n1,"inconclusive: 3.55 µM [inhibitor, full curve, poor fit]"
5,O=C(N/N=C/c1cccc([N+](=O)[O-])c1)c1cc2c(ccc3ccccc32)o1,"inconclusive: 2.24 µM [inhibitor, full curve]"
6,Cc1ccc(S(=O)(=O)N(C)CC(=O)OCC(=O)NC(=O)NC(C)C)cc1,inactive
7,Cc1noc(NS(=O)(=O)c2ccc(NC(=O)c3ccc(Br)cc3)cc2)c1C,inactive
8,COc1cccc(=O)c2c(C)n(-c3ccc(C(=O)O)cc3)c(C)c12,active: 15.8 µM
9,N#C/C(=C(/O)c1cccc(F)c1)c1nc2ccccc2s1,"inconclusive: 20 µM [inhibitor, single point]"
10,CC(c1ccccc1)C1CC(=O)N(CC(=O)O)C1=O (centres undefined),inactive
11,CC12CCC(c3c(C(=O)Nc4nccs4)nn(-c4ccccc4)c31)C2(C)C (centres undefined),inactive
12,Cc1cc(C)cc(NC(=S)/C(=C(\[O-])c2ccc(Cl)s2)[n+]2cccc(C)c2)c1,"inconclusive: 14.1 µM [inhibitor, partial curve]"
13,CC(=O)c1cccc(Nc2nc(-c3ccccc3)cs2)c1,"inconclusive: 2.82 µM [inhibitor, full curve]"
14,Cc1cccc(-c2noc(-c3ccccc3C(=O)NCC3CCCO3)n2)c1 (centres undefined),inactive
15,Cc1cc(C)c2nc(N3CCCC3)c(C#N)cc2c1,"inconclusive: 15.8 µM [inhibitor, partial curve]"
16,CC(C)(C)NC(=O)NC(=O)COC(=O)c1nc(-c2ccccc2)n(-c2cccc(C(F)(F)F)c2)n1,inactive
17,COc1cc(-c2cn(S(=O)(=O)c3cccc4nsnc34)nc2N)cc(OC)c1OC,"inconclusive: 44.7 µM [inhibitor, single point]"
18,Cc1ccccc1OCCCC(=O)Nc1ccc(N2CCOCC2)cc1,"inconclusive: 11.2 µM [inhibitor, partial curve]"
19,COc1ccc2[nH]c(C(=O)NCCN3CCOCC3)cc2c1,"inconclusive: 25.1 µM [inhibitor, partial curve, poor fit]"
20,O=[N+]([O-])c1ccc(Sc2ncccn2)c([N+](=O)[O-])c1,active: 12.6 µM
21,COC(=O)Nc1nn(-c2ccc(OC)cc2)c(=O)c(C#N)c1C,inactive
22,O=C(O)c1ccccc1NCc1ccco1,inactive
23,O=[N+]([O-])c1ccc(COc2ccc(Br)cc2CN2CCOCC2)cc1,"inconclusive: 44.7 µM [inhibitor, single point]"
24,CCc1ccccc1Nc1nn2c(=O)c3ccc(C(=O)Nc4ccc(OC)cc4)cc3nc2s1,"inconclusive: 0.891 µM [inhibitor, full curve]"
25,Cc1nc2c(c3c1[nH]c1ccccc13)C(=O)CC(C)(C)C2,inactive

row,Structure (SMILES),Potency
1,COc1ccc(-n2c(=O)c3c4c(sc3n3c(=S)[nH]nc23)CCC4)cc1,inactive
2,CCCOc1ccc(-c2cc(C(F)(F)F)c(C#N)c(SCC(=O)O)n2)cc1,"inconclusive: 1.58 µM [inhibitor, partial curve]"
3,Cc1cc(C)c(-n2c(C)cc(/C=C3/NC(=O)NC3=O)c2C)c(C)c1,"inconclusive: 22.4 µM [inhibitor, single point]"
4,Cc1ccc(C)c(N2CCN(C(=O)c3cc4sccc4n3C)CC2)c1,"inconclusive: 17.8 µM [inhibitor, partial curve]"
5,Cc1ccc(Cl)cc1NC(=O)CCCN1C(=O)CCn2nc(-c3cn(C)c4ccccc34)cc21,inactive
6,COc1ccc(C(=O)CN2CCN(S(=O)(=O)c3cccc([N+](=O)[O-])c3)CC2)cc1,inactive
7,O=[N+]([O-])c1ccc(-c2ccc(/C=N/O)o2)cc1,active: 7.08 µM
8,Cc1ccc(S(=O)(=O)Nc2cc(C(C(=O)OC(C)C)C(=O)C(F)(F)F)c(O)c3ccccc23)c(C)c1 (centres undefined),"inconclusive: 17.8 µM [inhibitor, partial curve]"
9,COc1ccc(CCNC(=O)CCc2c(C)c3cc4c(C)coc4cc3oc2=O)cc1,"inconclusive: 0.0708 µM [inhibitor, full curve, poor fit]"
10,CCOc1ccc2nc(/N=C/c3nc(-c4ccccc4)oc3O)sc2c1,"inconclusive: 2.82 µM [inhibitor, full curve]"
11,COc1ccc2c(c1)/C(=N/N1C(=O)c3ccccc3C1=O)C(=O)N2,"inconclusive: 20 µM [inhibitor, partial curve]"
12,Cc1ccccc1Cn1c(CN2CCN(c3cc(Cl)ccc3C)CC2)nc2c1c(=O)[nH]c(=O)n2C,"inconclusive: 35.5 µM [inhibitor, single point]"
13,COc1ccc(S(=O)(=O)NCc2cccs2)cc1,inactive
14,O=C(OCc1cc(-c2ccccc2)no1)c1ccc2ccccc2n1,"inconclusive: 28.2 µM [inhibitor, partial curve]"
15,S=C(Nc1ccccc1)N1CCN(c2ccccn2)CC1,inactive
16,Nc1c(C(=O)N/N=C/c2cccnc2)oc2nc(-c3ccccc3)cc(-c3ccco3)c12,"inconclusive: 31.6 µM [inhibitor, single point]"
17,NS(=O)(=O)c1ccc(CNC(=O)c2scc3c2CCCC3)cc1,inactive
18,COc1ccc(CCC(=O)NCc2nc3cccnc3n2Cc2ccccc2)cc1,inactive
19,Cn1c(=O)[nH]c(=O)c2c1nc(CN1CCN(c3ccc(F)cc3)CC1)n2CCc1ccccc1,inactive
20,CC1Cc2cc(S(=O)(=O)CCC(=O)Nc3ccc(Cl)cc3F)ccc2N1C(=O)C1CC1 (centres undefined),inactive
21,Cc1cccc(Nc2nc(N)c([N+](=O)[O-])c(NCc3ccccc3)n2)c1,"inconclusive: 15.8 µM [inhibitor, partial curve]"
22,COc1ccc(Cn2c(C)ccc2C)cc1,"inconclusive: 35.5 µM [inhibitor, partial curve]"
23,O=C(CN1CCOCC1)Nc1c2c(nc3ccccc13)N(Cc1ccccc1)CC2,inactive
24,CCOc1ccccc1C1C(C#N)=C(N)SC(N)=C1C#N,"inconclusive: 22.4 µM [inhibitor, partial curve, poor fit]"
25,COCCOC(=O)c1sc(=S)n(CCOC)c1N,active: 28.2 µM

row,Structure (SMILES),Potency
1,CCOC(=O)c1cnc2ccc(Cl)cc2c1NCCN(C)C,inactive
2,COc1ccc(C(=O)NC(=S)NCCO)cc1Br,inactive
3,CN(C)S(=O)(=O)c1cccc(NC(=O)COC(=O)c2cccc(S(=O)(=O)N3CCc4ccccc4C3)c2)c1,inactive
4,Cc1ccc(NC(=O)Cn2c(=O)oc3cc(S(=O)(=O)N4CCC(C)CC4)ccc32)cc1Cl,"inconclusive: 44.7 µM [activator, single point]"
5,COc1cc2c3c(c1)c(C1=NC(=S)NC1=O)c(O)n3C(C)(C)C=C2C,"inconclusive: 2 µM [inhibitor, full curve]"
6,c1ccc2oc(C3=NNC(=NC4CC4)SC3)cc2c1,active: 14.1 µM
7,Cc1ccc(O)c(C(=O)c2cnn(C(=O)Cc3csc(C)n3)c2)c1,"inconclusive: 17.8 µM [inhibitor, partial curve]"
8,O=C(COc1ccccc1C(=O)N/N=C\c1ccc(O)c(O)c1)N/N=C/c1ccc(O)c(O)c1,active: 12.6 µM
9,N#CC(C#N)=Cc1cc2ccccc2nc1N1CCOCC1,"inconclusive: 25.1 µM [inhibitor, single point]"
10,O=C(O)c1ccc(N2C(=O)c3[nH]nc(-c4ccccc4)c3C2c2cccc(F)c2)cc1 (centres undefined),inactive
11,N=c1c(C(=O)NCc2ccc(F)cc2)cc2c(=O)n3ccccc3nc2n1Cc1ccco1,"inconclusive: 17.8 µM [inhibitor, partial curve]"
12,CN(C(=O)COC(=O)c1cc(-c2ccco2)nc2ccccc12)C1CCS(=O)(=O)C1 (centres undefined),"inconclusive: 15.8 µM [inhibitor, partial curve, poor fit]"
13,Cc1[nH]n(C(N)=S)c(=O)c1N=Nc1ccc(S(=O)(=O)N2CCCCCC2)cc1,active: 25.1 µM
14,CCN(CC)c1ccc(O)c(C=Nc2ccc(C)c(C)c2)c1,"inconclusive: 28.2 µM [inhibitor, partial curve]"
15,CC(C)(C)c1cc(CCC(=O)NN)cc(C(C)(C)C)c1O,inactive
16,CC(C)(C)c1ccc(-c2nnc3sc(-c4ccccn4)nn23)cc1,"inconclusive: 17.8 µM [inhibitor, single point]"
17,O=C(NNC(=S)Nc1ccccc1C(F)(F)F)C1CC1,inactive
18,COc1ccc(/C=C(/CC(=O)NCc2ccc(Cl)cc2)c2nc3ccccc3s2)cc1,inactive
19,COc1ccc(C)cc1S(=O)(=O)NCC(c1ccc(N(C)C)cc1)N1CCc2ccccc21 (centres undefined),"inconclusive: 11.2 µM [inhibitor, partial curve]"
20,COc1cc2cc(Br)cc(Br)c2nc1C,"inconclusive: 22.4 µM [inhibitor, single point]"
21,Cc1cc(Br)ccc1OCC(=O)NNC(=O)c1cnccn1,inactive
22,CCOc1cc(/C=C/c2cc(C(=O)O)c3ccccc3n2)ccc1O,"inconclusive: 8.91 µM [inhibitor, full curve]"
23,COc1ccc(N2CCN(C(=O)c3cc4cc5ccc(Cl)cc5nc4o3)CC2)cc1,inactive
24,CCc1nn(CCCC(=O)N2CCN(c3ccc(OC)cc3)CC2)c(=O)c2cc3occc3n12,"inconclusive: 6.31 µM [inhibitor, partial curve]"

# — PubChem BioAssay AID1460 (National Center for Advancing Translational Sciences (NCATS), 2008)
